Our source for the binding signal values is article PMC12136788.

Some of the results follow.

B1: chr4:173384700:173388395:-|three_prime_utr|ENSG00000164106|control|control|control (ssRNA)
RNA: GGGAGUUCUACAGUCCGACGAUCCUGGAGAACACCAUUCCUGAUUUCCCACAAACUGCACUACAUCAGUAUAACUGCAUUUCUAGUUUCUAUAUAGUGCAAUAGAGCAUAGAUUCUAUAAAUUCUUACUUGUCUAAGACAAGUCAACAGAGGAUUGAGCAUCA
B2: chr6:139242528:139243314:-|CDS|ENSG00000164440|control|control|control (ssRNA)
RNA: GGGAGUUCUACAGUCCGACGAUCGGUGCCUGCAUGCGAGCCCAGUAGGCAGCCCCCACGAGCAGCAGCAGAGGAGCUGCCAGUAGGGGCCUCAGCUGGGCCCCAGCCGCGCAACGUGGCUGACACCAAUCUGGAAGGCGUCGACAACAGAGGAUUGAGCAUCA
B3: chr1:9850293:9850394:-|3pUTR|ENSG00000178585|unk|FALSE|unique (ssRNA)
RNA: GGGAGUUCUACAGUCCGACGAUCCGGUAUCUGGCUUCCCUGGAAGCUCUCCGAGCUCUGGUGCUUUAGUUAGGUCAUUUUUUUAGAAAUGUGAAGAGGUCUGAUUGGCUGCUUAAACUGGAAAGGAUCUGUGAUUGGCUGGUUCAACAGAGGAUUGAGCAUCA
B4: chr9:133361993:133362109:-|3pUTR|ENSG00000148248|msi1_unk|FALSE|overlapping (ssRNA)
RNA: GGGAGUUCUACAGUCCGACGAUCGGCAGGUUUCUGCUCAUAAGUGCUUUUGGAAGUCACCUACCUUUUUAACACAGCCGAACUAGUCCCAACGCGUUUGCAAAUAUUCCCCUGGUAGCCUACUUCCUUACCCCCGAAUAUUGGCAACAGAGGAUUGAGCAUCA
B5: ENSG00000198589:be:win_8951|3pUTR|ENSG00000198589|bound_else_gene|NA|bound_elsewhere_windowed (ssRNA)
RNA: GGGAGUUCUACAGUCCGACGAUCGAAAAUUUGAUGCUGUAAUUUGGGUCCUGUAUUUUUCCAAACAACUGUGCUUCUUCAGCACUAAUAUUUCUGGGAUUUAAAUAGUAAUGUUUAAAUUAUGGUAAAUGUAAUUUAAAACAUCAACAGAGGAUUGAGCAUCA
B6: chrX:117909842:117909960:-|CDS|ENSG00000003096|unk|total|mutant (ssRNA)
RNA: GGGAGUUCUACAGUCCGACGAUCAGCACAGGGGAGUUCUUGAAACUCCCUUUUGAGCGUCUUGCCUUCGUGCUUUCCAGUAACCGCCUUAAGCACUGUACUGAACUUGAGCUCUUUAAGGCUACCUGUCGUUGGCUUCGCCUGCAACAGAGGAUUGAGCAUCA
B7: chr3:48432659:48432768:-|CDS|ENSG00000164051|unk|total|mutant (ssRNA)
RNA: GGGAGUUCUACAGUCCGACGAUCAGUCCCCCGACCAGAGACAGAGAUGCCGAUGUCCUUUCAGCUGCCUUGAAAGAGCAGCUCCGUCAUUCCAGGCAAGUCCAUUCAUGUCCCGAAGGCUUACGAGAGCAGCUUGAUGGCCUACAACAGAGGAUUGAGCAUCA
B8: chr22:27980698:27980799:-|3pUTR|ENSG00000100154|unk|FALSE|unique (ssRNA)
RNA: GGGAGUUCUACAGUCCGACGAUCUAACCAUUAAUUUAUUUUAUAAAGAAAGGAAAUGCUGAAAGUCGUAUUAGUACUGAGUUUAGUUGGAGAAUUUAGAUAAGUAAGUAUCUUUUAGGUAAUUCUAAAAUUAAAAUCCUACCCCAACAGAGGAUUGAGCAUCA
B9: chr7:88202242:88202358:+|3pUTR|ENSG00000008277|unk|FALSE|unique (ssRNA)
RNA: GGGAGUUCUACAGUCCGACGAUCUCAGGAUAGAUAAGCAUGUACUCCUUUUUUAACUUGCUGGAAGACUUGCCCCUCCAAACUAGCACCCCCAAAAGACAACUUCUUUCAGAAACGGGGUGUUUUACCUAAACAUAGUAGCUUCAACAGAGGAUUGAGCAUCA
B10: chr1:117869688:117869789:-|3pUTR|ENSG00000196505|msi1|FALSE|unique (ssRNA)
RNA: GGGAGUUCUACAGUCCGACGAUCACUCCAGCAGUGAGCAUUUAGAGAGUGUGUUGUCUUCCAGAGUCAUGAAUGAUUUUGUUUAGCUAUCAGGUCUACUACCUCUAAGGACAUUUCAUAGCAGCAUCUCUUGAGUUGCCUGCACAACAGAGGAUUGAGCAUCA
B11: chr12:95077336:95077437:-|3pUTR|ENSG00000180263|msi1|total|mutant (ssRNA)
RNA: GGGAGUUCUACAGUCCGACGAUCUCCUCAUUGACCCAUCCGCAUCUCUGUUUAUCCAAGACUUCUCUGUGACCGCUGACCCUCCGUCUUUCUCUCCCCUAUUCCUCCAGACCCGAUCCUGUCUCCUUCCUGCAGCCCCGACACCAACAGAGGAUUGAGCAUCA
B12: chr8:23145667:23145921:-|CDS|ENSG00000173530|control|control|control (ssRNA)
RNA: GGGAGUUCUACAGUCCGACGAUCGGGGAUGCUUGCCUCUCCCUAUCACUACCUUAUCAUCAUAGUGGUUUUAGUCAUCAUUUUAGCUGUGGUUGUGGUUGGCUUUUCAUGUCGGAAGAAAUUCAUUUCUUACCUCAAAGGCAUCAACAGAGGAUUGAGCAUCA
B13: chr5:157162449:157163658:-|CDS|ENSG00000170613|control|control|control (ssRNA)
RNA: GGGAGUUCUACAGUCCGACGAUCGGUCACAUCACAUGACAGAGAGGUAGAUAUCGUGGCUAAGAUGGUGGAGAAGCAAAACAUAGAGGCCAAAGUGGAGAAAGCCCAGGGUGGCCAGGAGCUGGAGAUGAUCAGUGGCACUAUCAACAGAGGAUUGAGCAUCA
B14: chr5:154898482:154898583:-|CDS|ENSG00000082516|unk|total|mutant (ssRNA)
RNA: GGGAGUUCUACAGUCCGACGAUCUUUGGCCAAAAAGGGGGAUGCGGCAUCACUCCGAACGGCUGCAGAGUUGGCUGCCAUCGCCGGAGAGGAUGAGUUGUCUGCUUCCCUGGCUCUCAGAUGUGCCCAAGAGCUGCUUCUGGCCAACAGAGGAUUGAGCAUCA
B15: chr6:107883018:107883119:-|CDS|ENSG00000025796|unk|FALSE|bound_elsewhere (ssRNA)
RNA: GGGAGUUCUACAGUCCGACGAUCAAGGAAGAUGAAGAAGAAGUUUCAGAUAAGGGCAGUGAUUCUGAAGAAGAAGAAACCAAUAGAGAUUCCCAAAGUGAGAAAGAUGAUGGUAGUGACAGAGACUCUGAUAGAGAGCAAGAUCAACAGAGGAUUGAGCAUCA
B16: chr22:28629602:28629705:-|CDS|ENSG00000100154|unk|total|mutant (ssRNA)
RNA: GGGAGUUCUACAGUCCGACGAUCAUUGUUCUGUAUAAUGAAGCCCUGGCUGUUGACCCUCAGAACUGCAUCUUAUACAGCAACCGAUCUGCAGCCUACAUGAAAAUCCAGCAGUAUGACAAGGCACUGGAUGAUGCAAUCAAACAACAGAGGAUUGAGCAUCA
B17: ENSG00000124766:be:win_2251|3pUTR|ENSG00000124766|bound_else_gene|NA|bound_elsewhere_windowed (ssRNA)
RNA: GGGAGUUCUACAGUCCGACGAUCACGGUCAAACUGAAAUGGAUUUGCACGUUGGGGAGCUGGCGGCGGCGGCUGCUGGGCCUCCGCCUUCUUUUCUACGUGAAAUCAGUGAGGUGAGACUUCCCAGACCCCGGAGGCGUGGAGCAACAGAGGAUUGAGCAUCA
B18: chr7:50445662:50445763:-|CDS|ENSG00000132436|msi1|total|mutant (ssRNA)
RNA: GGGAGUUCUACAGUCCGACGAUCGUUAUCUCAACGGGGAGAUGGUGAGCAUGAAUCUUCCCGAAGGAUAAAAACAGAAUUUUCCGUUCAAUCCGAUGGAGCAACAACAUCUUCUGAAGAUCGUAUCCCCGUGGUGGGAGCAACCAACAGAGGAUUGAGCAUCA
B19: chr10:24620413:24620514:-|CDS|ENSG00000107863|msi1|total|mutant (ssRNA)
RNA: GGGAGUUCUACAGUCCGACGAUCGUGCUAAUGAAGUAUUGUCCAAGAAGUGCAUCUCAAGGAGCACUGACGUCUCCAUCUGUCCGUUUCCGUAAUCACCGAACUCGUUCAUGGGAUUAUAUUGAGGGACAGGAUGAAACCUUACAACAGAGGAUUGAGCAUCA
B20: chr2:85327303:85327429:-|CDS|ENSG00000152291|msi1|total|mutant (ssRNA)
RNA: GGGAGUUCUACAGUCCGACGAUCACCCAAAAAGGCAGCACCCGCAAGUCGGGUUCGGAGGCGCAGACCACAAAAGACAGCACCCGUAAGUCGCAUCCGGAGCUGCAGACUCCAAAAGACAGCACUGGCAAAUCGGGUGCGGAGCAACAGAGGAUUGAGCAUCA
B21: chr1:32364632:32368550:-|three_prime_utr|ENSG00000160058|control|control|control (ssRNA)
RNA: GGGAGUUCUACAGUCCGACGAUCGCUCAGACCCACAACAUUGGUCAUCAGCAGGCUGCACUUUUCCUCAGUUCCAGGGUGGAUAGAGGGUCAAGUUCUUGACCUUAGCUCUGUAUCAAAAUUGCCUGAGAAACUGCUUAAGAACAACAGAGGAUUGAGCAUCA
B22: ENSG00000138778:stop:overlap|stop_codon|ENSG00000138778|stop_codon|NA|stop_codon (ssRNA)
RNA: GGGAGUUCUACAGUCCGACGAUCCUCAGCCAGGUCCUUGGCACGCCUCCUCAGGCAAGGAUGUGCCUGAGUGCAAAACUCAGUAGACUCCUCUUUGUCACUUCUCUGGAGAUCCAGCAUUCCUUAUUUGGAAAUGACUUUGUUCAACAGAGGAUUGAGCAUCA

The test deals with MSI1 full-length (mouse, UniProt Q61474 1-362). Kind of test: nsRBNS (natural sequence RNA bind-n-seq); RBNS binding buffer (assumed for nsRBNS): 25 mM Tris pH 7.5, 150 mM KCl, 3 mM MgCl2, 0.01% Triton X-100, 500 ug/ml BSA, 20 U/ml SUPERase-In, 4 C; UNK is unkempt and MSI1 is Musashi-1; names of the RNAs are library labels; protein concentration not given here; high values mean tight binding.
UniProt Q61474, sequence (Q61474 whole entry): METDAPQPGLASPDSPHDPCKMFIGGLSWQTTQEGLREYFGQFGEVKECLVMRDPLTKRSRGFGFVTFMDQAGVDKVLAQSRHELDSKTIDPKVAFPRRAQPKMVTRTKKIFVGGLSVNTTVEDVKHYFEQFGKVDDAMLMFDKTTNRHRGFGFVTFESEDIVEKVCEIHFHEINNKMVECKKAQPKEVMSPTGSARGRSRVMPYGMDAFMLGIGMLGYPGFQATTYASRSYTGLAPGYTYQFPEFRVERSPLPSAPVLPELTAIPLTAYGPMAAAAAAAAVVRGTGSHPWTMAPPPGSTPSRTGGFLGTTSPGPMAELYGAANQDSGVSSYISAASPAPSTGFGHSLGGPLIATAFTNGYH
The molecule B1 gave a binding signal of 1.16 enrichment R. Take B2: the binding signal was determined as 0.254 enrichment R.

In turn, B3 displayed a binding signal of 2.47 enrichment R. Under B4 stands 0.473 enrichment R; under B5, 0.503 enrichment R. B6: the binding signal came to 0.349 enrichment R. As to B7, the binding signal worked out at 0.43 enrichment R. B8 came in with a binding signal of 12.2 enrichment R. B9 came in with a binding signal of 2.56 enrichment R. In turn, B10 yielded a binding signal of 0.721 enrichment R. Molecule B11 yielded a binding signal of 0.928 enrichment R.

Molecule B12 had a binding signal of 2.8 enrichment R. Under B13 stands 0.709 enrichment R; under B14, 0.367 enrichment R; under B15, 7.31 enrichment R. Under B16 stands 0.294 enrichment R; under B17, 0.463 enrichment R; under B18, 0.332 enrichment R.

As for B19, the binding signal amounted to 0.238 enrichment R.

Take B20: the binding signal was 0.393 enrichment R. For B21, the binding signal stood at 0.437 enrichment R. As for B22, the binding signal is 0.399 enrichment R.
